PubChem BioAssay AID624417 (National Center for Advancing Translational Sciences (NCATS), 2012)
Hit rate of the full screen: of about 410,000 compounds, about 6,400 (1.6%) were called active. Inconclusive results, whose numbers are uncertain, are shown with a selection of clear calls. The call rests on the fitted dose curve; in most records, active means well fitted inhibition curve with a large enough effect; inconclusive means small, poorly fitted or top-dose-only effect; inactive means no such curve, though single readings can be large or run the other way. Potencies of inconclusive entries are left out as doubtful fits.

molecular target: Glucagon-like peptide 1 receptor (Homo sapiens) (UniProt P43220); assay: qHTS of GLP-1 Receptor Inverse Agonists (Inhibition Mode); details: HEK293 GLP-1R CRE-luciferase, luminescence, 24 h, GLP-1R form is constitutively active; activity change, negative = inhibition: at 38.3 µM (top of the series) unless noted; further: nearly all actives have a fitted effect of over 55% in size
Procedure, shortened: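 Readout was luciferase luminescence, measured 12 min after detection reagent at room temperature. Beforehand, GLP-1R reporter HEK293 cells had sat 12 h, then received compounds for 24 hr at 37 deg C.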
On the % scale 0 is the no-effect control and ±100 the full control effect; potency means the concentration at half of the fitted maximal effect; tags describe the fitted curve by direction and shape.

Sequence of UniProt P43220 (P43220 whole entry, looked up): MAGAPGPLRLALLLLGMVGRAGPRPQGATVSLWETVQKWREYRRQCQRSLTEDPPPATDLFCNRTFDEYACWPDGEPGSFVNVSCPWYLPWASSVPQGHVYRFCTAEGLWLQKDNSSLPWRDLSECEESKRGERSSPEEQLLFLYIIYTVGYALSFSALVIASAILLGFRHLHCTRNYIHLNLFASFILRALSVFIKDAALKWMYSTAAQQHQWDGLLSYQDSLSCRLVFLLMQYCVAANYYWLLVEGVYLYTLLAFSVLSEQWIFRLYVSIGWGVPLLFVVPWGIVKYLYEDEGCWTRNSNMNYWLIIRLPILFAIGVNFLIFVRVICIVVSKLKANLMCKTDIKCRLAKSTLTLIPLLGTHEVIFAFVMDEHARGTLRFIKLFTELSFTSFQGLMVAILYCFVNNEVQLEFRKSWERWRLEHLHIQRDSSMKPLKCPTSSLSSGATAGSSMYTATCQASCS

| SMILES | Potency | activity change, negative = inhibition |
| --- | --- | --- |
| Cc1cc(C)c2nc(NC(=O)[C@@H](NC(=O)c3cccc(S(=O)(=O)N4CCOCC4)c3)C(C)C)sc2c1 | inconclusive [inhibitor, partial curve, poor fit] |  |
| CC(=O)Nc1ccc(NS(=O)(=O)c2ccc(C)cc2)cc1[N+](=O)[O-] |  | inactive: -3.16% |
| CCN1CCc2c(C#N)c(N3CCOCC3)nc(NCc3ccccc3)c2C1 |  | inactive: -27.2% |
| CCOC(=O)Cc1csc(-n2sc3ccccc3c2=O)n1 |  | inactive: 9.71% |
| CC1c2ccsc2CCN1S(=O)(=O)c1cccs1 (stereo unspecified) | inconclusive [inhibitor, single point] |  |
| COc1ccc(Br)cc1CNC(=O)c1ccc2c(c1)nc1n2CCCCC1 | inconclusive [inhibitor, single point] |  |
| COc1ccc(CCNC(=O)Nc2nc(C(N)CCc3ccccc3)cs2)cc1OC (stereo unspecified) | inconclusive [inhibitor, single point] |  |
| CC(=O)OCC1=C[C@@H]2OC(=O)C3=CO[C@@H](O[C@@H]4O[C@H](CO)[C@@H](O)[C@H](O)[C@H]4O)[C@H]1[C@@H]32 |  | inactive: 0.046% |
| CCc1nc2ccc(C(=O)Nc3cccc(OCC(=O)N(C)C)c3)cn2c1N(C)Cc1cc2ccccc2s1 | inconclusive [inhibitor, single point] |  |
| COc1ccc(S(=O)(=O)Nc2nc3ccccc3nc2NCC2CCCO2)cc1 (stereo unspecified) | inconclusive [inhibitor, single point] |  |
| CCOC(=O)CNc1c(-c2ccccc2)nc2ccc(Cl)cn12 | inconclusive [inhibitor, single point] |  |
| Cc1nc2c(O)cccc2cc1CO |  | inactive: 2.5% |
| CC(=O)N1N=C(c2ccc(Cl)cc2)CC1c1ccco1 (stereo unspecified) |  | inactive: -27.9% |
| CC1Cc2nc(SCC(=O)c3ccccc3)n(Cc3ccccc3)c(=O)c2S1 (stereo unspecified) | inconclusive [inhibitor, partial curve, poor fit] |  |
| Fc1ccc(/C=N/Nc2nc(-c3cccnc3)nc3ccccc23)cc1 | inconclusive [inhibitor, single point] |  |
| CCN(CC)CCn1c2c(c(SCC(=O)Nc3cccc(C(C)=O)c3)nc1=O)CCCC2 | inconclusive [inhibitor, single point] |  |
| COc1ccc(OC)c(NC(=O)Cn2c(=O)n(CC(=O)NCc3ccco3)c(=O)c3ccccc32)c1 | inconclusive [inhibitor, partial curve, poor fit] |  |
| Cc1ccc(-c2nn(-c3ccccc3)cc2CC(=S)N2CCOCC2)cc1 | inconclusive [inhibitor, single point] |  |
| COc1ccc(/C=C/C(=O)Oc2cccc(/C=N/NC(=O)c3cccc(F)c3)c2)cc1 | inconclusive [inhibitor, single point] |  |
| Cc1ccc(NC(=O)CNc2ccc(OC(C)C)cc2)cc1 |  | inactive: 21.2% |
| CN=C1S/C(=C/c2cn(CC(=O)OC)c3ccccc23)C(=O)N1C |  | inactive: 24.1% |
| O=C(Nc1ccc(Cl)c(S(=O)(=O)N2CCCCC2)c1)C1=COCCO1 | inconclusive [inhibitor, single point] |  |

| SMILES | Potency | activity change, negative = inhibition |
| --- | --- | --- |
| C/C(=N\O)c1ccc(Cl)cc1Cl | inconclusive [inhibitor, single point] |  |
| COc1cccc(NC2SC(=O)N(c3ccccc3)C2=O)c1 (stereo unspecified) | inconclusive [inhibitor, single point] |  |
| Cc1cccc(C(=O)Nc2ccc(NC(=O)c3cccc(C)c3)cc2)c1 |  | inactive: -14.4% |
| Oc1cccc(Nc2ncnc3sc4c(c23)CCCC4)c1 |  | inactive: 12.3% |
| CCN(Cc1ccccc1)S(=O)(=O)c1cc(C(=O)NC(C)C2CC3CCC2C3)ccc1OC (stereo unspecified) | inconclusive [inhibitor, partial curve, poor fit] |  |
| O=C1CCCc2[nH]c3cccc(/C(=C/c4ccccc4)c4ccccc4)c3c21 | inconclusive [inhibitor, partial curve, poor fit] |  |
| Cc1cc(NC2CCCC2)n2ncc(-c3ccccc3)c2n1 | inconclusive [inhibitor, full curve, poor fit] |  |
| COc1ccc(C2CCc3cc4c(cc3C2=NO)OCO4)cc1OC (stereo unspecified) | inconclusive [inhibitor, single point] |  |
| COc1ccc(S(=O)(=O)NCC(c2ccc(F)cc2)N2CCN(C)CC2)cc1 (stereo unspecified) | inconclusive [inhibitor, partial curve, poor fit] |  |
| OCCCc1cn(Cc2ccccc2)c2ccccc12 | inconclusive [inhibitor, single point] |  |
| CC12CC3(C)CC(C)(C1)CC(C(=O)NCc1cccnc1)(C2)C3 | inconclusive [inhibitor, single point] |  |
| O=C(N/N=C/c1ccccc1O)C1CC(=O)N(c2ccc(Cl)cc2)C1 (stereo unspecified) | inconclusive [inhibitor, full curve, poor fit] |  |
| O=C(CSc1ccccc1)Nc1ccccc1N1CCOCC1 | inconclusive [inhibitor, single point] |  |
| CCOc1ccc(CCNC(=O)c2ccc(CS(=O)Cc3ccccc3Cl)o2)cc1 (stereo unspecified) | inconclusive [inhibitor, partial curve, poor fit] |  |
| COc1ccc(OCc2cc(C(=O)N3CCCC(OC)C3)no2)c2ccccc12 (stereo unspecified) | inconclusive [inhibitor, single point] |  |
| O=C(NC1CC(=O)N(c2ccc(Cl)cc2)C1)c1cccs1 (stereo unspecified) |  | inactive: -5.8% |
| Cc1cccc2sc(N3CCN(C(=O)C4COc5ccccc5O4)CC3)nc12 (stereo unspecified) | inconclusive [inhibitor, single point] |  |
| CC1=C(C(=O)OCc2ccc3c(c2)OCO3)C(c2ccc(O)c([N+](=O)[O-])c2)NC(=O)N1 (stereo unspecified) | inconclusive [inhibitor, full curve, poor fit] |  |
| O=C1C(Cc2ccccc2)NC(=S)N1Cc1ccccc1 (stereo unspecified) | inconclusive [inhibitor, partial curve, poor fit] |  |
| Cc1ccc(N(Cc2ccccc2)C(=O)c2ccc(S(=O)(=O)N3CCOCC3)cc2)cc1 | inconclusive [inhibitor, single point] |  |
| Cn1c(=O)[nH]c(=O)c2c1nc(SCCN1CCCCC1)n2Cc1ccccc1 |  | inactive: 4.66% |
| CC(NC(=O)c1cccs1)c1ccc(Br)cc1 (stereo unspecified) | inconclusive [inhibitor, partial curve, poor fit] |  |

| SMILES | Potency | activity change, negative = inhibition |
| --- | --- | --- |
| Cc1ccc(NC(=O)/C=C/c2ccc(S(=O)(=O)N3CCOCC3)cc2)cc1S(=O)(=O)N(C)C | inconclusive [inhibitor, single point] |  |
| Cc1ccc(S(=O)(=O)NCc2ccc(C(=O)N3CCN(c4ccc([N+](=O)[O-])cc4)CC3)cc2)cc1 | inconclusive [inhibitor, partial curve, poor fit] |  |
| N/C(=N\OC(=O)c1cccs1)c1ccccc1 | inconclusive [inhibitor, single point] |  |
| COc1ccc(-c2cc3c(=O)n(CC(=O)NCCCN4CCC(N5CCCCC5)CC4)ncn3n2)cc1 | inconclusive [inhibitor, partial curve] |  |
| O=C(Nc1ccc(N=Nc2ccccc2)c(NC(=O)C2CCCO2)c1)C1CCCO1 (stereo unspecified) | inconclusive [inhibitor, single point] |  |
| O=C(CNC(=O)c1ccc(F)cc1)Nc1ccccc1C(F)(F)F |  | inactive: 3.27% |
| Cc1[nH]c2ccccc2c1C(C[N+](=O)[O-])c1cccc(O)c1 (stereo unspecified) | inconclusive [inhibitor, partial curve, poor fit] |  |
| Cc1nn(-c2ccccc2)c(N2CCCC2)c1/C=N/NC(=S)Nc1cc(C(F)(F)F)ccc1Cl | inconclusive [inhibitor, partial curve, poor fit] |  |
| CCCc1ccccc1OCCNS(=O)(=O)c1cc2c(cc1C)OCC(=O)N2 | inconclusive [inhibitor, partial curve, poor fit] |  |
| CS(=O)(=O)c1sc(C(=O)NC(=S)Nc2ccc(OC(F)(F)F)cc2)c2c1C=CCC2 | inconclusive [inhibitor, partial curve, poor fit] |  |
| Cc1c(C(=O)NCCCN2CCOCC2)sc2nc(-c3ccc(F)cc3)cn12 |  | inactive: -26.1% |
| O=C(CCc1ccc(O)cc1)c1c(O)cc(O)cc1O |  | inactive: -15.3% |
| CCOC(=O)c1ccc(N2C(=O)c3n[nH]c(C)c3C2c2ccccn2)cc1 (stereo unspecified) |  | inactive: -1.52% |
| COc1cccc(CC2(CO)CCCN(Cc3sc(N4CCCC4)nc3Cl)C2)c1 (stereo unspecified) | inconclusive [inhibitor, partial curve, poor fit] |  |
| COc1ccccc1CNC(=O)c1cc2c(C)nn(Cc3ccc(F)cc3)c2s1 | inconclusive [inhibitor, partial curve, poor fit] |  |
| CN(NC(=O)c1ccccc1)c1ncc(C(F)(F)F)cc1Cl |  | inactive: 2.41% |
| O=S(=O)(c1ccc(-c2csc(Nc3ccc(F)cc3)n2)cc1)N1CCCC1 | inconclusive [inhibitor, single point] |  |
| Cc1cccc(C2=NN(c3ccccc3)[C@H](CO)[C@H]2c2ccc(Cl)cc2)c1 | active: 10 µM |  |
| CC(C)(C)c1ccc(Oc2ccc(N)cn2)cc1 | inconclusive [inhibitor, partial curve] |  |
| O=C(OCC(=O)N1CCCCCC1)c1ccc(F)cc1F |  | inactive: 30.9% |
| Cn1c(SCC(=O)N2CC(=O)Nc3ccccc32)nnc1C(F)(F)F |  | inactive: -3.65% |
| COC(=O)c1ccc(N2C(=O)CC(SCC(=O)Nc3ccc(OC)cc3)C2=O)cc1 (stereo unspecified) |  | inactive: 11.4% |
